# According to PubChem BioAssay AID662 (National Center for Advancing Translational Sciences (NCATS), 2007):
# In all, about 71,000 compounds went through this assay and about 1,800 (2.5%) were called active. The inconclusive results got no clear call from the source; some entries with a clear call stand among them for comparison. Calls come from the whole dose curve; as a rule, active = well fitted activation curve with a large enough effect in the signal ratio, with a control signal flat (not every such curve was filed as active); inconclusive = small, poorly fitted or top-dose-only effect, or effect the other way, or a change in a side signal; inactive = flat fitted curve, though single readings scatter; the % refers to the signal ratio. A potency beside an inconclusive call is a rough fit, not a confirmed value.
# Test: Cell signaling CRE-BLA (Fsk stim); for activity change, negative = inhibition: % of control where 0% means no effect
# Details: CHO CRE-bla reporter (cAMP response element driving beta-lactamase), forskolin EC10, beta-lactamase ratio
# Procedure, shortened: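 Reporter-gene assay: CHO cells with beta-lactamase behind cAMP responsive elements, co-treated with compound and EC10 NKH 477 for 3 hours at 37 degrees Celsius. Activity came from the 460/530 nm CCF4 emission ratio.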
# [1] = activity change, negative = inhibition: at 38.2 µM (top of the series) unless noted
# Potency is the fitted concentration of half-maximal effect; tags give direction and shape of the fitted curve.
compound,measurement,setting,value
CC1(C)CN=C(Nc2ccccc2C(F)(F)F)S1,"activity change, negative = inhibition",[1],inconclusive: 5.48%
[Cl-].[Cl-].[Hg+2],Potency,[1],"inconclusive: 1 µM [falling, full curve]"
O=c1ccc2cc(O[C@H]3O[C@@H](CO)[C@@H](O)[C@@H](O)[C@@H]3O)c(O)cc2o1,Potency,[1],"inconclusive: 7.94 µM [rising, partial curve]"
CC[C@]1(OC(=O)CN)C(=O)OCc2c1cc1n(c2=O)Cc2cc3ccccc3nc2-1,Potency,[1],active: 0.1 µM
C(#CCN1CCCC1)CN1CCCC1,Potency,[1],"inconclusive: 5.01 µM [rising, single point]"
CCCSc1nc(O)c(CC)c(=O)n1C(C)CC (stereo unspecified),"activity change, negative = inhibition",[1],inconclusive: 12.8%
COCCCn1c(N)c(C(=O)NCCC(C)C)c2nc3ccccc3nc21,Potency,[1],"inconclusive: 12.6 µM [rising, partial curve]"
CCC(=NCc1cccnc1)c1c(O)n(Cc2ccccc2)c(=O)[nH]c1=O,Potency,[1],active: 1.58 µM
COc1ccc(C2=NCC(=O)N(CC(=O)NCc3ccco3)c3sc4c(c32)CCCC4)cc1OC,"activity change, negative = inhibition",[1],inconclusive: 19%
CS(=O)(=O)Nc1ccc(Cc2noc(-c3ccc4[nH]cc(CCN)c4c3)n2)cc1,"activity change, negative = inhibition",[1],inconclusive: -20%
Cc1ccc(OCC(=O)N2CCN(C)CC2)c(Br)c1,"activity change, negative = inhibition",[1],inconclusive: 11.6%
COc1cc2c(cc1OC)[C@@]13CCN4C=C5CCO[C@H]6CC(=O)N2[C@@H]1[C@@H]6[C@H]5C[C@H]43,"activity change, negative = inhibition",[1],inactive: -0.413% [at 7.6 µM]
O=[N+]([O-])c1cccc2c([N+](=O)[O-])cccc12,"activity change, negative = inhibition",[1],inactive
O=P(O)(O)c1ccccc1 (tested in a mixture with another compound),"activity change, negative = inhibition",[1],inactive: -3.21% [at 7.6 µM]
N#CC(C#N)=Cc1ccc(O)c(O)c1,"activity change, negative = inhibition",[1],inconclusive: -8.74%
same,"activity change, negative = inhibition",at 38.2 µM (top of the series),inactive: -11.9%
C[C@@](Br)(C(=O)O)[C@H](Br)C(=O)O,"activity change, negative = inhibition",[1],inactive: 13.2% [at 7.6 µM]
Cc1nc2cc(F)ccc2n1C1CCN(Cc2nnnn2CCc2ccccc2)CC1,"activity change, negative = inhibition",[1],inconclusive: 26.7%
CC(=O)c1c(O)c(C)c(O)c(Cc2c(O)c3c(c(C(=O)/C=C\c4ccccc4)c2O)OC(C)(C)C=C3)c1O,"activity change, negative = inhibition",[1],inconclusive: -25.6%
O=[N+]([O-])c1cccc2ccccc12,"activity change, negative = inhibition",[1],inactive
CCN[C@]1(c2cccs2)CCCCC1=O,"activity change, negative = inhibition",[1],inactive
CC(=O)Nc1ccc(OC(=O)N(C)c2ccccc2)cc1,"activity change, negative = inhibition",[1],inconclusive: -0.475% [at 7.6 µM]
N[C@@H](Cc1c[nH]c2ccccc12)c1nnc(SCc2c(F)cccc2Cl)o1,Potency,[1],"inconclusive: 12.6 µM [rising, single point]"
C/C=C(\C)C(=O)O[C@@H]1C(C)=C2[C@H]([C@@H]1OC(=O)CCCCCCC)[C@@](C)(OC(C)=O)C[C@@H](OC(=O)CCC)[C@@]1(O)[C@H]2OC(=O)[C@]1(C)O,Potency,[1],"inconclusive: 0.0501 µM [rising, full curve]"
C[C@]1(O)CC[C@H]2[C@@H]3[C@@H](O)CC4=CC(=O)CC[C@@]4(C)[C@H]3CC[C@]21C,"activity change, negative = inhibition",[1],inconclusive: -28.9% [at 7.6 µM]
O=C(Oc1ccccc1)N1CCC[C@@]2(CCN(Cc3ccccc3)C2)C1,"activity change, negative = inhibition",[1],inactive
CN1[C@@H]2CC[C@H]1CC(O[C@@H](c1ccccc1)c1ccccc1N)C2 (stereo partly specified),"activity change, negative = inhibition",[1],inactive
O=c1[nH]c(=O)n(C2CCCCCC2)c(O)c1C=NC1CCN(Cc2ccccc2)CC1,Potency,[1],"inconclusive: 10 µM [rising, partial curve]"
O=c1[nH]c(=O)n(C2CCCCCC2)c(O)c1C=NCC1CCCO1 (stereo unspecified),Potency,[1],"inconclusive: 10 µM [rising, single point]"
CCOC(=O)c1ccc2[nH]c(-c3ccc(S(=O)(=O)F)cc3)cc(=O)c2c1,"activity change, negative = inhibition",[1],inactive: -1.21% [at 7.6 µM]
c1cncc(C2CC(c3cccs3)n3ncnc3N2)c1 (stereo unspecified),"activity change, negative = inhibition",[1],inconclusive: 18.1%
c1ccc2c(c1)Nc1ccccc1S2,"activity change, negative = inhibition",[1],inactive
CCCN(CCC)C1Cc2cc(OC)c(OC)cc2C1,Potency,[1],"inconclusive: 31.6 µM [falling, single point]"
CCC(=NC1CCN(Cc2ccccc2)CC1)c1c(O)[nH]c(=O)[nH]c1=O,"activity change, negative = inhibition",[1],inconclusive: -1.38%
CCCc1cc2c(n1Cc1ccco1)C(C)C1CN(C(=O)c3ccccc3)C(C)(C(=O)OC)C21 (stereo unspecified),Potency,[1],"inconclusive: 25.1 µM [rising, single point]"
CCCCN1C(=O)NC(=O)C2(Cc3c(nc4ccccn4c3=O)N3CCc4ccccc4C32)C1=O (stereo unspecified),"activity change, negative = inhibition",[1],inactive
O=c1c2ccccc2[se]n1-c1ccccc1,Potency,[1],"inconclusive: 5.01 µM [falling, partial curve]"
same,"activity change, negative = inhibition",[1],inconclusive: -22.7%
CCCCN=Cc1c(O)n(-c2c(C)cc(C)cc2C)c(=O)[nH]c1=O,"activity change, negative = inhibition",[1],inconclusive: 22.4%
CN1C(=O)N(C)C(=O)C2(Cc3c(nc4ccccn4c3=O)N3CCc4ccccc4C32)C1=O (stereo unspecified),"activity change, negative = inhibition",[1],inactive
N#CS.N=C=S.N=C=S.[Cu].[NH2-].[NH2-].[NH2-].[NH2-].c1ccc2ncccc2c1,"activity change, negative = inhibition",[1],inactive: 26.1% [at 7.6 µM]
O=C(Cn1ncc2c3ccccc3n(Cc3ccccc3F)c2c1=O)N1CCC2(CC1)OCCO2,"activity change, negative = inhibition",[1],inconclusive: 3.92%
COc1cccc2c1C(=O)c1c(O)c3c(c(O)c1C2=O)C[C@](O)(/C(C)=N\O)C[C@@H]3O[C@H]1C[C@H](N)[C@@H](O)[C@H](C)O1,"activity change, negative = inhibition",[1],inactive: -9.26% [at 7.6 µM]
O=C1CN=C(c2cccs2)c2c(sc3c2CCCC3)N1,"activity change, negative = inhibition",[1],inactive
N#Cc1ccc(CN2CCCC3(CCN(C(=O)Oc4ccccc4)CC3)C2)cc1,"activity change, negative = inhibition",[1],inactive
O=C(COc1ccccc1)N1CCN(C2CCCC2)CC1,"activity change, negative = inhibition",[1],inconclusive: -15.8%
COc1ccc(N=C(C)c2c(O)n(C)c(=O)n(C)c2=O)c(OC)c1,Potency,[1],"inconclusive: 0.2 µM [rising, partial curve]"
COc1cc2c(cc1O)C[C@H]1c3c(cc(OC)c(O)c3-2)CCN1C,"activity change, negative = inhibition",[1],inconclusive: -10.8%
Cn1c(O)c(C=Nc2ccc3c(c2)CCC3)c(=O)n(C)c1=O,"activity change, negative = inhibition",[1],inconclusive: 25.9%
Cc1cccc(C)c1NC1=NCCCCS1,"activity change, negative = inhibition",[1],inconclusive: -2.27%
O=C(CCc1nc(-c2ccccc2F)no1)N1CCC2(CC1)OCCO2,"activity change, negative = inhibition",[1],inconclusive: 6.25%
